# In US10655130B2, “Modulation of breast cancer growth by modulation of XBP1 activity” (Cornell University, priority 2012, dated 2020):
# Columns and labels:
# [1] = system: MDA-MB-231 xenograft tumors; settings: after treatment from day 15 until day 30
# [2] = system: MDA-MB-231 xenograft tumors; settings: cells derived from treated tumors, day 20
structure (smiles),measurement,setting,value
COc1cccc2c1C(=O)c1c(O)c3c(c(O)c1C2=O)C[C@@](O)(C(=O)CO)C[C@@H]3O[C@H]1C[C@H](N)[C@H](O)[C@H](C)O1 [doxorubicin],relapse from treatment,[1],60 days
same,mammosphere formation,[2],increased
